We go through 66 cell lines from the supplement of paper PMC4967469.

The term IC50 denotes the concentration that inhibits the measured activity by half.

A lower IC50 marks a more sensitive line; a limit (>, <) means that the fit lies beyond the doses tested. AUC is the area under the same curve over the 256-fold range up to the top dose, as a fraction; the more sensitive the line, the further below 1. Some results are limits rather than exact numbers.

Compound in this test: Cn1c(=O)n(-c2ccc(C(C)(C)C#N)cc2)c2c3cc(-c4cnc5ccccc5c4)ccc3ncc21 [NVP-BEZ235]
The test can be described thus: Viability of human cancer cell lines after 72 h of drug (GDSC screen). As to the method: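 Human cancer cell lines in 384-well plates, medium with 10% serum, drug for 72 h over a 256-fold dose range (nine 2-fold or five 4-fold steps up to the top dose). Adherent lines were fixed and stained with the nucleic acid dye Syto60, suspension lines read with resazurin; signal relative to control wells, capped at 0 and 100%. One two-parameter sigmoid per drug and line, fitted in a mixed model over all curves with the slope shared within a line.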

On to “SK-N-AS (neuroblastoma, adherent, top dose 0.25 µM)”, for which the AUC amounted to 0.764 and the half-maximal inhibitory concentration (IC50) is 0.105 µM.
For “SK-N-FI (neuroblastoma, adherent, top dose 0.25 µM)” the same measures were 0.809 and 0.129 µM.
For “SK-N-SH (neuroblastoma, adherent, top dose 0.25 µM)” the same measures were 0.759 and 0.0868 µM.
On the same counts, the results for “SK-OV-3 (ovary, adherent, top dose 0.25 µM)” are 0.756 and 0.106 µM.
Take “SK-PN-DW (Ewing sarcoma, adherent, top dose 0.25 µM)”: the AUC came out at 0.619 and the IC50 is 0.0336 µM.
For “SKG-IIIa (cervix, adherent, top dose 0.25 µM)” the same measures were 0.788 and 0.153 µM.
On the same counts, the results for “SKM-1 (haematopoietic neoplasm, suspension, top dose 0.25 µM)” are 0.618 and 0.0341 µM.
“SKN (uterus, adherent, top dose 0.25 µM)”: the AUC was found to be 0.599 and the IC50 was determined as 0.031 µM.
For “SKN-3 (head and neck, adherent, top dose 0.25 µM)” the same measures were 0.817 and 0.173 µM.
On the same counts, the results for “SLVL (B-cell lymphoma, suspension, top dose 0.25 µM)” are 0.843 and 0.193 µM.
On the same counts, the results for “SNB75 (glioma, adherent, top dose 0.25 µM)” are 0.665 and 0.0557 µM.
As for “SNG-M (endometrium, adherent, top dose 0.25 µM)”, the AUC worked out at 0.749 and the IC50 is 0.0796 µM.
On the same counts, the results for “SNU-61 (large intestine, adherent, top dose 0.25 µM)” are 0.948 and above 0.25 µM.
As to “SNU-81 (large intestine, adherent, top dose 0.25 µM)”, the AUC came to 0.73 and the half-inhibitory concentration (IC50) turned out to be 0.0896 µM.
On the same counts, the results for “SNU-182 (liver, adherent, top dose 0.25 µM)” are 0.833 and 0.172 µM.
On the same counts, the results for “SNU-387 (liver, adherent, top dose 0.25 µM)” are 0.672 and 0.0507 µM.
For “SNU-407 (large intestine, adherent, top dose 0.25 µM)” the same measures were 0.765 and 0.106 µM.
Turning to “SNU-423 (liver, adherent, top dose 0.25 µM)”, the AUC amounted to 0.722 and the IC50 was 0.0749 µM.
For “SNU-449 (liver, adherent, top dose 0.25 µM)” the same measures were 0.746 and 0.0856 µM.
For “SNU-C1 (large intestine, suspension, top dose 0.25 µM)” the same measures were 0.67 and 0.0586 µM.
On the same counts, the results for “SNU-C2B (large intestine, adherent, top dose 0.25 µM)” are 0.79 and 0.152 µM.
With “SNU-C5 (large intestine, adherent, top dose 0.25 µM)”, the AUC was 0.864 and the IC50 was above 0.25 µM.
Turning to “SR (lymphoid neoplasm, suspension, top dose 0.25 µM)”, the AUC was 0.588 and the IC50 was found to be 0.0265 µM.
On to “ST486 (Burkitt lymphoma, suspension, top dose 0.25 µM)”, for which the AUC was 0.807 and the IC50 stood at 0.111 µM.
As to “STS-0421 (soft tissue, adherent, top dose 0.25 µM)”, the AUC worked out at 0.77 and the IC50 stood at 0.111 µM.
As to “SU-DHL-4 (B-cell lymphoma, suspension, top dose 0.25 µM)”, the AUC came out at 0.932 and the IC50 is 0.205 µM.
On the same counts, the results for “SU-DHL-5 (B-cell lymphoma, suspension, top dose 0.25 µM)” are 0.373 and 0.00767 µM.
With “SU-DHL-6 (B-cell lymphoma, suspension, top dose 0.25 µM)”, the AUC is 0.465 and the IC50 is 0.0129 µM.
On the same counts, the results for “SU-DHL-8 (B-cell lymphoma, suspension, top dose 0.25 µM)” are 0.837 and 0.151 µM.
On the same counts, the results for “SU-DHL-10 (B-cell lymphoma, suspension, top dose 0.25 µM)” are 0.53 and 0.0185 µM.
For “SU-DHL-16 (B-cell lymphoma, suspension, top dose 0.25 µM)” the same measures were 0.61 and 0.0289 µM.
Consider “SUIT-2 (pancreas, adherent, top dose 0.25 µM)”, for which the AUC was found to be 0.693 and the IC50 amounted to 0.056 µM.
On the same counts, the results for “SUP-B8 (B-cell leukaemia, suspension, top dose 0.25 µM)” are 0.665 and 0.0448 µM.
With “SUP-B15 (lymphoblastic leukaemia, suspension, top dose 0.25 µM)”, the AUC stood at 0.58 and the IC50 worked out at 0.0256 µM.
On the same counts, the results for “SUP-HD1 (Hodgkin lymphoma, suspension, top dose 0.25 µM)” are 0.748 and 0.0773 µM.
For “SUP-M2 (anaplastic large cell lymphoma, suspension, top dose 0.25 µM)” the same measures were 0.701 and 0.0489 µM.
With “SUP-T1 (T-cell lymphoblastic leukaemia, suspension, top dose 0.25 µM)”, the AUC was determined as 0.799 and the concentration for half-maximal inhibition (IC50) is 0.107 µM.
For the cell line “SW13 (adrenal gland, adherent, top dose 2 µM)”, the AUC was found to be 0.39 and the half-maximal inhibitory concentration (IC50) was found to be 0.0621 µM.
For “SW48 (large intestine, adherent, top dose 0.25 µM)” the same measures were 0.828 and 0.153 µM.
For “SW620 (large intestine, adherent, top dose 0.25 µM)” the same measures were 0.862 and 0.174 µM.
On the same counts, the results for “SW626 (ovary, adherent, top dose 0.25 µM)” are 0.807 and 0.158 µM.
Consider “SW684 (fibrosarcoma, adherent, top dose 0.25 µM)”, for which the AUC came to 0.834 and the IC50 is above 0.25 µM.
For “SW756 (cervix, adherent, top dose 0.25 µM)” the same measures were 0.888 and above 0.25 µM.
On the same counts, the results for “SW780 (bladder, adherent, top dose 0.25 µM)” are 0.58 and 0.0265 µM.
For “SW900 (lung squamous cell carcinoma, adherent, top dose 2 µM)” the same measures were 0.5 and 0.125 µM.
Regarding “SW948 (large intestine, adherent, top dose 0.25 µM)”, the AUC worked out at 0.952 and the half-inhibitory concentration (IC50) was above 0.25 µM.
For “SW954 (urogenital system, adherent, top dose 0.25 µM)” the same measures were 0.853 and 0.2 µM.
For “SW962 (urogenital system, adherent, top dose 0.25 µM)”, the AUC is 0.505 and the 50% inhibitory concentration (IC50) came to 0.0162 µM.
On the same counts, the results for “SW982 (soft tissue, adherent, top dose 0.25 µM)” are 0.682 and 0.0512 µM.
With “SW1271 (small cell lung carcinoma, adherent, top dose 0.25 µM)”, the AUC turned out to be 0.883 and the IC50 was above 0.25 µM.
On the same counts, the results for “SW1417 (large intestine, adherent, top dose 0.25 µM)” are 0.972 and above 0.25 µM.
On the same counts, the results for “SW1573 (lung adenocarcinoma, adherent, top dose 0.25 µM)” are 0.764 and 0.122 µM.
Take “SW1710 (bladder, adherent, top dose 0.25 µM)”: the AUC worked out at 0.55 and the IC50 is 0.0214 µM.
For “SW1783 (glioma, adherent, top dose 0.25 µM)” the same measures were 0.787 and 0.0971 µM.
For “Saos-2 (osteosarcoma, adherent, top dose 0.25 µM)” the same measures were 0.806 and 0.198 µM.
For “SiHa (cervix, adherent, top dose 0.25 µM)” the same measures were 0.837 and 0.206 µM.
As to “T47D (breast, adherent, top dose 0.25 µM)”, the AUC stood at 0.695 and the IC50 turned out to be 0.0749 µM.
On the same counts, the results for “T84 (large intestine, adherent, top dose 0.25 µM)” are 0.968 and above 0.25 µM.
On the same counts, the results for “T98G (glioma, adherent, top dose 0.25 µM)” are 0.609 and 0.0304 µM.
For “T-T (oesophagus, adherent, top dose 0.25 µM)” the same measures were 0.786 and 0.108 µM.
On to “TC-71 (Ewing sarcoma, adherent, top dose 0.25 µM)”, for which the AUC was 0.745 and the IC50 stood at 0.0678 µM.
For “TC-YIK (cervix, suspension, top dose 0.25 µM)” the same measures were 0.86 and 0.166 µM.
For “TCCSUP (bladder, adherent, top dose 0.25 µM)” the same measures were 0.687 and 0.0567 µM.
For “TE-1 (oesophagus, adherent, top dose 0.25 µM)” the same measures were 0.85 and above 0.25 µM.
With “TE-4 (oesophagus, adherent, top dose 0.25 µM)”, the AUC stood at 0.727 and the IC50 is 0.0688 µM.
On to “TE-5 (oesophagus, adherent, top dose 0.25 µM)”, for which the AUC amounted to 0.663 and the IC50 was determined as 0.0478 µM.
